Source: the supplement of paper PMC3334620
Whole data set: some 33,000 sequences, median “E-score (-0.5 to 0.5)” near -0.013, cut for the highest 2% near 0.3. The list shows a part of the results.

Target: T1, Msn1 (UniProt P22148)
T1 sequence: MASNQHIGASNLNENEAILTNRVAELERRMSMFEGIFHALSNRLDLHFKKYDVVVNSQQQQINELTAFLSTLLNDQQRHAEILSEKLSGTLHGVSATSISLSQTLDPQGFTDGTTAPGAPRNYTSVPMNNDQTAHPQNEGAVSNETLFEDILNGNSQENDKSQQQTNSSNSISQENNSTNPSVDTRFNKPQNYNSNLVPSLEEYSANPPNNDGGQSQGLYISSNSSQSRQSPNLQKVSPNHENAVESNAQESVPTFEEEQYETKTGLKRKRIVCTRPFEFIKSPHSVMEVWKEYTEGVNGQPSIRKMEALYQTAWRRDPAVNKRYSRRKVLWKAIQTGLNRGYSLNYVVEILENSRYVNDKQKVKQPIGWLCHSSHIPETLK
Assay: PBM E-score (8-mer binding enrichment) (E-score (-0.5 to 0.5)); higher = stronger / more preferred TF binding; most listed sequences are background and not binding sites
Settings: protein concentration: 200 nM; construct: GST-full length
Experimental: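 Universal 'all 10-mer' protein binding microarrays (Agilent AMADID 015681) probed with GST-tagged S. cerevisiae TFs (full-length or DBD) made by in vitro transcription/translation (PURExpress), about 100-200 nM. Bound TF was detected with fluorescent anti-GST. Each ungapped 8-mer (which stands for itself and its reverse complement) is scored by the PBM enrichment score (E-score), a modified Wilcoxon-Mann-Whitney statistic from -0.5 to +0.5, computed with the Universal PBM Analysis Suite. Scale: above 0.35 generally sequence-specific binding.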

Sequence | PBM E-score
ACCGATTA | -0.0202
TAATCACA | -0.114
ATGAACCG | 0.113
ACGAAAGC | 0.0616
AATCGTCG | -0.0329
ACCTTAAG | -0.0467
CCCCGAAA | 0.132
GAGGTCAC | -0.0184
CGACCCCC | -0.477
ACCGGTGG | -0.195
CCACAGAC | 0.104
GGACTCAC | -0.116
AATGACCG | 0.081
CCGTCGAC | -0.0376
GCTGATAC | -0.0226
CCCCAGGA | -0.341
AGAAGCTA | -0.135
CAAGGCGG | -0.0842
ACGTTGAC | -0.0368
AATGGCAC | -0.0842
GCAGGTAA | 0.068
GTCCCCAA | 0.187
ATACCCAA | 0.195
ATCTGCTA | -0.0771
GTGGTAGA | -0.219

Sequence | PBM E-score
AATGCGCG | 0.213
ACACGCCT | 0.162
CTCGCGCA | -0.0472
CCGCCGGC | -0.087
CCGTCAGA | -0.175
ACACAAAA | 0.296
CTTTCCCC | -0.0808
ACTGAAAC | 0.0672
ATGTTGTA | 0.0647
AGCTGCTG | -0.049
ACTGTGTG | -0.0962
ATTTTTAC | -0.0167
AACCTAGT | 0.0134
ACAGTAGT | -0.0432
CGTCTATA | -0.0769
CACGACCC | -0.304
GCGTAGAA | 0.00649
GACCTAAC | 0.127
AAGTGTGT | 0.103
GGAAAGGA | 0.0229
AACGCCGG | -0.0155
CTAAACGA | -0.0143
CTTCTCGA | 0.00137
ATCTGGTG | -0.0161
CATATAGA | 0.178

Sequence | PBM E-score
ACGCGATC | -0.00507
ATGCCCAA | 0.0214
GGCTTCAC | -0.22
GCCGATGA | -0.055
GAGACACC | 0.0217
CGAGGACA | 0.453
AGTCTGAT | -0.0321
CAACCTAA | 0.0393
GAAAGGCA | -0.095
GGAGTGGA | -0.114
TACGTCCA | 0.179
ACGGCGAA | 0.173
CATGAAAC | 0.0367
ATCTGTAC | 0.269
CCCTGGTA | -0.256
GTCGACGA | -0.0442
TGGACGAA | 0.226
CGTTGAGC | -0.152
ACGCCCGT | -0.0262
ATACCATA | 0.0438
AAATAACT | 0.295
CGACACCG | -0.0238
AGCTATGG | -0.0771
CATTAAGG | -0.0214
CTGGTGCC | -0.0638

Sequence | PBM E-score
GCTCGACC | -0.17
CGGACTTC | 0.0733
TAAAATAA | 0.0622
ACAGTAAT | 0.119
CACCTGAA | 0.0818
CTGCTTTA | 0.103
GGACAGTA | 0.102
CTACCGGA | -0.0645
TCGGTTCA | -0.047
CACCTATC | -0.044
AATCTGGC | -0.235
GATGCTCA | -0.249
ATTCTGCG | 0.178
AAGTCGCG | 0.202
AACGAGCG | 0.0745
CAGAAATG | 0.164
GGGTGAGA | -0.244
CGGTTCAG | -0.251
GCGCAGAC | 0.171
CTCCCGAC | -0.0805
AAGGCTTC | -0.0824
ACGCGATG | -0.0223
CCTTTCAA | -0.0699
CCAGAAGA | -0.167
CACCACAG | 0.0197

Sequence | PBM E-score
CCCTGACC | -0.238
ACCAAACA | 0.0314
CGACTCTA | -0.196
GAGAGATA | 0.121
CCTACAAG | -0.111
ATGATAGA | 0.165
ACAGCCCC | -0.142
CCCTCAAG | -0.197
AGGATCAC | -0.0517
CTCGGTGA | 0.00589
CTGACGTA | -0.112
GTATAGAA | 0.161
CAAAGAAC | 0.125
CCATCAGA | -0.166
ACCTCAAC | 0.00341
AGTGATCG | -0.188
ATGAACGG | 0.0477
ACTGTATA | 0.236
CTAGCGTC | -0.0835
AGCGATAT | 0.0998
GCCCTCCC | -0.308
CCAATTGA | 0.023
CAAAATAC | 0.139
GTTATTCA | 0.142
ATGCACTA | -0.0118

Sequence | PBM E-score
TAAGTGAA | 0.145
CGCCACCC | -0.249
GGCAAGAC | 0.0134
GACCCAAA | 0.0882
ATCACCTG | -0.137
ACTCTGCA | 0.0249
CGTACAGC | -0.123
CAGATCGG | -0.0621
GCGAGCCA | -0.0799
GCTAAAGC | -0.0984
CCTAGATC | -0.0304
ATTATTGG | -0.0158
ATGGACAT | 0.484
CCTCTTTA | -0.287
GTAGTGTA | -0.167
ACCATTTC | 0.0512
CCCGTAAG | -0.117
AACCCATC | -0.157
GGAAACCA | -0.252
ACTTGTCG | 0.297
CAATCAAC | 0.0592
GGCCTGAA | -0.211
AGTTTCTC | 0.17
AAATGTAA | 0.238
ACTCTACG | -0.218

Sequence | PBM E-score
ACAGCGTA | -0.149
GAAGGACA | 0.471
GATCAGAA | -0.218
AGTGACAG | 0.0949
AAGGGCAA | 0.109
CATTCAGC | 0.0507
ATACCCCG | -0.0946
GTCGCGCA | 0.06
CTACCCAA | 0.0829
CATGTCCA | 0.463
CTACAAAG | 0.0161
CAGCTATG | 0.0002
CATGGACA | 0.47
GCGTGGCA | -0.137
AACAGGCG | -0.287
CAGTGTTA | -0.0135
ATAATGTA | 0.139
CAGTCATA | 0.0625
TAGGGCAA | -0.0804
GATCGACC | 0.126
ACCCGACC | 0.0169
CCGCTTGA | 0.0113
